From PubChem BioAssay AID485294 (National Center for Advancing Translational Sciences (NCATS), 2010)
About 150 (0.041%) of roughly 370,000 compounds were called active. This list was built around the results that the source calls inconclusive (neither active nor inactive); the mix of calls is not that of the screen. Calls come from the whole dose curve; as a rule, active = well fitted inhibition curve with a large enough effect; inconclusive = small, poorly fitted or top-dose-only effect; inactive = flat fitted curve, though single readings scatter. No potency is given beside an inconclusive call; the fits are too rough. Numbered stars: 1 amine (or outer) side, 2 acyl side, 3 side chain; on linkers, the order of the positions; unused ones are H or OH. Bridge positions count the residues as written; N and C are the ends. Square brackets hold non-standard residues; d marks the D form. Peptide text beside a SMILES is read from it. ξ: configuration not given here. hSer(Ph(2-I,4-NO2,6-CO)) = O=C([C@H](CCOc1c(I)cc([N+](=O)[O-])cc1C(=O)[*:3])N[*:1])[*:2]; ξD = NC(CC(=O)O)C(=O)O

Target: Beta-lactamase (Escherichia coli (strain K12)) (UniProt P00811)
Test: qHTS Inhibitors of AmpC Beta-Lactamase (assay with detergent); note: nearly all actives have a fitted effect of over 25% in size;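 for activity change, negative = inhibition: 0% = no-compound wells and -100% = no-enzyme wells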
Conditions: AmpC hydrolysis of nitrocefin, absorbance 480 nm, 0.01% Triton; activity change, negative = inhibition: at 114 µM (top of the series)
Procedure, shortened: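 AmpC (5.3 nM in the dispensed reagent) in 20 mM phosphate pH 7.0 with 0.01% (detergent screen) or 0.0001% Triton X-100 was preincubated with compounds for 15 min at room temperature. Nitrocefin was then added from an 800 uM solution, and hydrolysis was followed at 480 nm.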
Potency is the fitted concentration of half-maximal effect; tags give direction and shape of the fitted curve.

UniProt P00811, sequence (P00811 whole entry, looked up): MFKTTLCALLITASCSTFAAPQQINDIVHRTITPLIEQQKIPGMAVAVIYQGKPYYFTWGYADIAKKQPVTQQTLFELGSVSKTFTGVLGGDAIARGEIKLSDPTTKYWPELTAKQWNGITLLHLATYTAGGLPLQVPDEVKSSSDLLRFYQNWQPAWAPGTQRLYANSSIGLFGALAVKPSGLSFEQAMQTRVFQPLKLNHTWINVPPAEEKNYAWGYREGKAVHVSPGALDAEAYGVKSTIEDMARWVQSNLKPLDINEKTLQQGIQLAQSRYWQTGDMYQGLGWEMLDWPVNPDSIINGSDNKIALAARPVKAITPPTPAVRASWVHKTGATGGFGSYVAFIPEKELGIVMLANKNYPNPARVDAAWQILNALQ

SMILES	Potency	activity change, negative = inhibition
CCCCN(C(=O)COC(=O)c1nc2nccc(C)n2n1)C1CCS(=O)(=O)C1 (stereo unspecified)	inconclusive [inhibitor, full curve, poor fit]	–
Nc1c2c(nc3sc4c(c13)CCCC4)CCCC2	–	inactive: 2.38%
COc1cc2c(cc1OC)C(COc1cc(C)cc(C)c1)N(C(=O)C(C)(C)C)CC2 (stereo unspecified)	–	inactive: 4%
O=C(Nc1ccc2c(c1)OCO2)NC1(C(F)(F)F)Oc2ccccc2O1	inconclusive [inhibitor, full curve, poor fit]	–
COc1ccc(/C(C)=N/NC(=O)c2ccccc2N)cc1	inconclusive [inhibitor, partial curve, poor fit]	–
Cc1ccc(C[C@H](C(=O)O)N2C(=O)c3ccc(C(=O)O)cc3C2=O)cc1	inconclusive [inhibitor, full curve]	–
COc1ccc(CC(=O)Nc2nccs2)cc1OC	inconclusive [inhibitor, partial curve, poor fit]	–
COc1ccc(C(=O)Nc2cc3c(cc2C#N)OCO3)cc1S(=O)(=O)N1CCN(C)CC1	inconclusive [inhibitor, partial curve, poor fit]	–
CCn1c(SCc2nc3ccccc3[nH]2)nnc1-c1ccc(OC)cc1	inconclusive [inhibitor, full curve, poor fit]	–
Cc1cc(NC(=O)c2ccc(C#N)cc2)on1	–	inactive: -0.229%
COc1ccc(NC(=O)c2ccc(C#CC(C)(C)O)cc2)cc1	inconclusive [inhibitor, partial curve]	–
COc1cccc(NC(=O)N(CCCN2CCOCC2)C(C)c2cc3ccccc3o2)c1 (stereo unspecified)	inconclusive [inhibitor, partial curve, poor fit]	–
Cc1c(S(=O)(=O)N2CCc3ccccc3C2)c(=O)n(C)c(=O)n1C	inconclusive [inhibitor, full curve, poor fit]	–
CC1C(=O)N2CCCc3cc(NC(=O)C(=O)NCc4ccccn4)cc1c32 (stereo unspecified)	inconclusive [inhibitor, single point]	–
CC(=O)N1CCC2(CC1)C(C#N)=C(N)Oc1c2sc2nc(C)cc(C)c12	inconclusive [inhibitor, full curve, poor fit]	–
COc1ccccc1C(c1nnnn1CCc1ccccc1)N1CCCCCC1 (stereo unspecified)	inconclusive [inhibitor, full curve, poor fit]	–
O=C(COC(=O)c1ccc(Cl)nc1)Nc1ccc2ccccc2c1	inconclusive [inhibitor, full curve, poor fit]	–
c1ccc(-n2nnc3ccccc32)nc1	inconclusive [inhibitor, full curve, poor fit]	–
COc1cc2c(C(=O)N3CCN(c4ccccc4C)CC3)c(C)oc2cc1Br	inconclusive [inhibitor, single point]	–
CC1CCN(S(=O)(=O)c2ccc(-c3nnc(SCc4cccnc4)o3)cc2)CC1	inconclusive [inhibitor, full curve]	–
N#Cc1cc2c(nc1SCC(=O)Nc1cc(Cl)ccc1Cl)C1CCN2CC1	–	inactive: -5.76%
CCn1c(=O)cc(OCC(=O)N2CCCCCC2)c2ccccc21	inconclusive [inhibitor, full curve]	–

SMILES	Potency	activity change, negative = inhibition
ClC(=C\c1ccccc1)/C=N/N1CCN(c2ccccn2)CC1	inconclusive [inhibitor, full curve, poor fit]	–
O=c1c2[nH]c3ccccc3c2ncn1Cc1ccco1	–	inactive: -1.65%
Cn1c(=O)oc2cc(S(=O)(=O)CCC(=O)NCc3ccc(Cl)cc3)ccc21	–	inactive: 7%
Cc1ccc(S(=O)(=O)CC(=O)Nc2ccccn2)cc1	inconclusive [inhibitor, partial curve, poor fit]	–
Nc1c(S(=O)(=O)c2cccc(Cl)c2)c2nc3ccccc3nc2n1/N=C/c1ccc(O)c(O)c1	inconclusive [inhibitor, single point]	–
Cc1ccc2c(c1)NC(=O)C(CC(=O)N(C)Cc1ccccc1)O2 (stereo unspecified)	inconclusive [inhibitor, partial curve, poor fit]	–
CC[C@H](C)[C@H](NC(N)=O)C(=O)NCCc1ccc(OC)c(OC)c1	inconclusive [inhibitor, full curve, poor fit]	–
Oc1ccc(Br)cc1-c1nc2cnccn2c1NC1CCCCC1	–	inactive: -7.51%
O=C(NNC1=NCCCCC1)c1cccc([N+](=O)[O-])c1	inconclusive [inhibitor, full curve]	–
O=C(COc1ccc(Cl)cc1)OCc1cc(=O)n2nc(C3CCCCC3)sc2n1	–	inactive: 19.1%
COc1ccc(N(C(C)C(=O)N2CCC(Cc3ccccc3)CC2)S(C)(=O)=O)cc1 (stereo unspecified)	–	inactive: 6.21%
CC(NC(=O)NC1CCCCC1)C(c1cccs1)N1CCOCC1 (stereo unspecified)	inconclusive [inhibitor, full curve, poor fit]	–
O=C(COc1ccccc1)Nc1cccc(-c2nc3cc4ccccc4cc3[nH]2)c1	–	inactive: 0.975%
CCN1C(=NCc2ccco2)N[C@@H](c2cccc(C(F)(F)F)c2)C(C(=O)OC)=C1C	inconclusive [inhibitor, partial curve]	–
O=c1c2oc3ccccc3c2n(Cc2ccccc2Cl)c(=O)n1Cc1ccc2c(c1)OCO2	–	inactive: -1.5%
CC1CN(CCOCCSc2ccccc2)CC(C)O1 (stereo unspecified)	inconclusive [inhibitor, single point]	–
O=C(c1cncc(Br)c1)N1CCN(S(=O)(=O)c2ccccc2C(F)(F)F)CC1	–	inactive: -6.82%
COc1ccc(-c2nnc3ccc(SCC(=O)Nc4nc5ccccc5s4)nn23)cc1OC	inconclusive [inhibitor, partial curve]	–
COc1ccc(S(=O)(=O)N(C)c2ccc(C(=O)Nc3c(C)n(C)n(-c4ccccc4)c3=O)cc2)cc1	inconclusive [inhibitor, partial curve, poor fit]	–
Cc1ccc(Oc2ccc(Cl)cc2N)cc1	–	inactive: -0.114%
O=S(=O)(NCCc1csc2nc(-c3ccc(Cl)cc3)nn12)c1cccs1	–	inactive: 2.54%
Cc1cc(NC(=O)CSc2nnnn2-c2ccccc2F)no1	inconclusive [inhibitor, full curve, poor fit]	–

SMILES	Potency	activity change, negative = inhibition
CC1CCN(Cc2c(O)ccc3c(=O)c(-c4nc5ccccc5s4)c(N)oc23)CC1	inconclusive [inhibitor, partial curve]	–
C/C(=C\C(=O)N1CCc2ccccc21)C(=O)O	inconclusive [inhibitor, single point]	–
Cc1ccc(N(CC(=O)NC(C)C)C(=O)CCC(=O)Nc2ccccn2)cc1	–	inactive: 1.11%
CCCC(=NC(C)CC)C1=C(O)CC(c2ccccc2)CC1=O (stereo unspecified)	inconclusive [inhibitor, full curve, poor fit]	–
CN(Cc1ccccc1)c1nc2c(S(=O)(=O)c3cccc(Cl)c3)nnn2c2ccsc12	–	inactive: -1.76%
COC(=O)C(C#N)c1nc2ccccc2nc1N1CCN(Cc2ccc3c(c2)OCO3)CC1 (stereo unspecified)	inconclusive [inhibitor, full curve, poor fit]	–
Cc1ccc(C(=O)N2CCCc3ccccc32)c(F)c1F	inconclusive [inhibitor, full curve, poor fit]	–
Cc1ccc(CNCC2CCCO2)o1 (stereo unspecified)	inconclusive [inhibitor, single point]	–
CC(=O)/C(=C/c1ccc(N(C)C)cc1)C(=O)c1ccccc1	–	inactive: -8.04%
C=CCNC(=O)c1c(CSc2ccccc2)noc1C(=O)NCc1ccccc1	–	inactive: -0.659%
CCC1CCc2c(sc(NC(=O)c3cnccn3)c2C(N)=O)C1 (stereo unspecified)	inconclusive [inhibitor, full curve, poor fit]	–
CCOc1ccc(NC(=O)NC2CCOC(C)(C)C2)cc1 (stereo unspecified)	–	inactive: 1.74%
C[C@@H]1NC(=O)c2cc([N+](=O)[O-])cc(I)c2OCC[C@@H](C(=O)NC(CC(=O)O)C(N)=O)NC(=O)[C@H](CCC(=O)O)NC1=O (stereo partly specified) (AE[hSer(Ph(2-I,4-NO2,6-CO))][ξD]-NH2; lactam N-3)	inconclusive [inhibitor, full curve, poor fit]	–
Cc1ccccc1NC(=O)Cc1nc(CSc2nnc(-c3ccc4c(c3)OCO4)o2)cs1	inconclusive [inhibitor, full curve]	–
Cc1ccc(-n2c(SCC(=O)Nc3ccc(N4CCOCC4)cc3)nc3ccccc3c2=O)cc1	inconclusive [inhibitor, partial curve, poor fit]	–
O=C(CCN1C(=O)COc2ccccc21)NCc1ccco1	inconclusive [inhibitor, full curve, poor fit]	–
Cc1ccc(C(=O)NNC(=O)c2cc(OCC(F)(F)F)ccc2OCC(F)(F)F)cc1	–	inactive: -1.17%
CC(C)CN(C(=O)CCc1ccccc1)c1c(N)n(CC(C)C)c(=O)[nH]c1=O	–	inactive: -17.5%
Cc1cc(OCC(=O)N[C@@H](Cc2ccccc2)C(=O)O)c2c3c(c(=O)oc2c1)CCC3	inconclusive [inhibitor, partial curve]	–
COc1ccc(CNC(=O)Cn2cccc2C(=O)c2ccccc2)cc1	inconclusive [inhibitor, full curve, poor fit]	–
CCCCN1C(Nc2ccccc2)=NC[C@@H]1Cc1ccccc1	inconclusive [inhibitor, single point]	–
CCc1ccccc1NC(=O)Cn1c(=O)n(-c2ccc(C)cc2)c(=O)c2cc(OC)c(OC)cc21	–	inactive: 16.9%
